# Measured values reported in paper PMC4336329 (PLoS ONE, 2015).
# Hit rate of the full screen: of about 310,000 compounds, about 2,200 (0.71%) showed an effect of 50% or more. The effect is printed as a negative number. Some of the results follow.
# Target: human ether-à-go-go-related gene (hERG) potassium channel (human, UniProt Q12809)
# Experiment: primary screen, population patch clamp on CHO cells stably expressing hERG
# Chain of human ether-à-go-go-related gene (hERG) potassium channel (Q12809 whole entry, looked up): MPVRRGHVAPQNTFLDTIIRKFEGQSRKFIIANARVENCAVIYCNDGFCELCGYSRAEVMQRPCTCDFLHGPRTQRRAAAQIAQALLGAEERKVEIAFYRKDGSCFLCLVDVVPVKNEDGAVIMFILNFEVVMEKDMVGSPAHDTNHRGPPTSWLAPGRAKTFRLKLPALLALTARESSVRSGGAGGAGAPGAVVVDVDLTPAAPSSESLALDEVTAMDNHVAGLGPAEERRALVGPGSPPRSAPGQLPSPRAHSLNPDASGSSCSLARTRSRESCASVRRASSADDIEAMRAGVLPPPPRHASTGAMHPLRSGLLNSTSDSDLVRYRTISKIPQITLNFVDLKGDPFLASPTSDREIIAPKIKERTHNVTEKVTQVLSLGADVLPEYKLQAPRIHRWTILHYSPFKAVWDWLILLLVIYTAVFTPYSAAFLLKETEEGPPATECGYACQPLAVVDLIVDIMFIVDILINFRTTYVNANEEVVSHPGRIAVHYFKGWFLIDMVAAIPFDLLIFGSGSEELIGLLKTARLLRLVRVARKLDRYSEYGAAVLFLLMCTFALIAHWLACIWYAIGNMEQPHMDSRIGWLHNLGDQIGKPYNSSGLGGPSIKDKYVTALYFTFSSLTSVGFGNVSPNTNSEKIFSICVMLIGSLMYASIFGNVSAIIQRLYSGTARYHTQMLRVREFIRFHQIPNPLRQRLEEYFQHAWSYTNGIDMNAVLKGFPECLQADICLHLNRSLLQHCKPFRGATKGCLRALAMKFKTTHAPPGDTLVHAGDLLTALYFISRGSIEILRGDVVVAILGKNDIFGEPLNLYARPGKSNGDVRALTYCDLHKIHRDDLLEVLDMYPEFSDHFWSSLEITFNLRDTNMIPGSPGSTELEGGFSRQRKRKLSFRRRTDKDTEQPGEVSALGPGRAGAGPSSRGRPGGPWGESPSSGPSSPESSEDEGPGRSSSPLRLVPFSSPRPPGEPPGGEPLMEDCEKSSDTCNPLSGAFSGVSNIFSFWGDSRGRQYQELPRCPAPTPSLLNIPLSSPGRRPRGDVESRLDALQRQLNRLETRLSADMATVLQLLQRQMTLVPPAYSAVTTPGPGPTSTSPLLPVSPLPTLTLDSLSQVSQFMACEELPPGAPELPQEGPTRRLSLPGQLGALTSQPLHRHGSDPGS
row,Compound,"hERG current change (%, negative = inhibition) at 1uM"
1,N#Cc1c(SCc2ccccc2)sc(C(=O)c2ccccc2)c1N,10.8%
2,COC(=O)c1cc(OC)c(OC)c(OC)c1NC(=O)c1ccc(S(=O)(=O)N(C)C)cc1,5.04%
3,CC(=O)c1ccc(Cl)c(Cl)c1Cl,19.1%
4,CCc1nc(Cl)c(C#N)c2c1CCCC2,7.07%
5,Cc1ccc(-n2nc3c([n+]2[O-])CCc2nonc2-3)cc1,17.7%
6,CCN1CCN(C(=O)C2=CC(c3ccc(OC)cc3)=NS(=O)(=O)N2C)CC1,4.49%
7,CN(CC(=O)Nc1c(Cl)cccc1Cl)C(=O)c1ccc2nc[nH]c2c1,8.51%
8,Cc1ccc(-c2nc(-c3cccnc3)no2)c(C)c1,16.6%
9,Cn1cnnc1SCCC(=O)Nc1ccc(Cl)cc1,12.8%
10,COc1ccccc1OC(C)C(=O)Nc1ccc2c(c1)OCCO2 (stereo not drawn),-0.875%
11,O=C(OCC(=O)N1CCCC1=O)C1COc2ccccc2O1 (stereo not drawn),11.1%
12,Cc1ccccc1NC(=O)/C(C#N)=C/c1ccc(-c2ccc(Cl)c(C(=O)O)c2)o1,16.4%
13,Cc1cnc(NC(=O)c2ccc3c(c2)C(=O)N(Cc2cccnc2)C3=O)s1,0.185%
14,O=C(c1ccccc1)N(Cc1cccc(Br)c1)C1CCS(=O)(=O)C1 (stereo not drawn),-0.927%
15,Fc1ccc(CNc2nc(-c3cccnc3)nc3ccccc23)cc1,4.06%
16,O=S(=O)(Nc1ccc(Cc2ccncc2)cc1)N1CCCC1,8.02%
17,Oc1ccc2ccccc2c1/C=N/Nc1nnc(-c2ncc[nH]2)c2ccccc12,17.4%
18,CC1CCN(C(=O)c2ccc(COc3ccccc3Cl)o2)CC1,5.5%
19,Cc1cc(NC(=O)C2Oc3ccccc3OC2C)no1 (stereo not drawn),17.8%

row,Compound,"hERG current change (%, negative = inhibition) at 1uM"
1,Cc1ccc(NC(=O)CSCC(=O)Nc2ccc(N3CCOCC3)c(Cl)c2)cc1,5.04%
2,Cc1ccc(CCNC(=O)c2nc(CS(=O)(=O)c3ccc(Cl)cc3)no2)cc1,22.4%
3,CCN1C(=O)[C@H]2[C@@H](c3ccc(C)cc3)N3C(=O)N(c4cccc(C)c4)C(=O)[C@@]3(Cc3ccccc3)[C@H]2C1=O,6.48%
4,CCN(CC)CC(=O)N1c2ccccc2Sc2ccc(Cl)cc21.Cl,15.2%
5,CCCCCSc1cc(OC)c(CCN)cc1OC.O=C(O)/C=C\C(=O)O,-11.6%
6,O=C(COC(=O)/C=C/c1ccccc1[N+](=O)[O-])NCC(F)(F)F,4.11%
7,CCOC(=O)Cc1nnc(NC(=O)c2ccco2)s1,5.45%
8,c1ccc(NC(=NCc2ccco2)c2ccccc2)cc1,6.52%
9,CC(Oc1ccc(Cl)cc1Cl)C(=O)NN=C1CCN(C)CC1 (stereo not drawn),4.85%
10,O=C(Cc1ccccc1)NCC(=O)N1CCN(c2ccccc2)CC1,11.4%
11,O=C(Nc1ccc(Cc2ccncc2)cc1)c1ccc(N2CCOCC2)c([N+](=O)[O-])c1,-14.3%
12,COc1ccc(CCNC(=O)c2c(N)n(CCN3CCOCC3)c3nc4ccccc4nc23)cc1OC,3.51%
13,CCOC(=O)/C(=C/c1c[nH]c2ccccc12)NC(C)=O,2.55%
14,O=[N+]([O-])c1cccc2nc(-c3ccccc3)c(-c3ccccc3)nc12,5.52%
15,Cc1cc(C)c(S(=O)(=O)/N=C2\C=C(NS(=O)(=O)c3ccccc3)C(=O)c3ccccc32)c(C)c1,-1.09%
16,CCC(=O)Nc1ccccc1Oc1ccccc1,12.7%
17,CC(=O)Nc1ccc2[nH]c(C)c(CC=C(Cl)Cl)c(=O)c2c1,10.7%
18,FC(F)(F)c1cccc(NC(=S)NCCN2CCOCC2)c1,0.747%
19,COc1ccc(NC(=O)NNS(=O)(=O)c2ccc(Br)cc2)cc1,17.8%

row,Compound,"hERG current change (%, negative = inhibition) at 1uM"
1,Cc1ccc(O)c(Sc2cc(C)ccc2O)c1,6.97%
2,Cc1sc2ncn(CC(=O)N3CCOCC3)c(=O)c2c1-c1ccccc1,12.8%
3,Cc1cc(C)n2nc(CCc3ccccc3)nc2n1,-15.2%
4,Cc1ccc2nc(NCc3ccccc3)c(C=NCc3ccccc3)c(=O)n2c1,6.24%
5,COc1ccc(CCN2C(=S)N(C)C(=O)C2CC(=O)Nc2ccc(OC)cc2)cc1 (stereo not drawn),10.4%
6,COc1ccc(-c2noc(=O)n2Cc2ccccc2Cl)cc1,-1.41%
7,COC(=O)c1c(NS(=O)(=O)c2cccs2)sc2c1CCCC2,10.6%
8,CCN(CC)Cc1c(-c2ccccc2)[nH]c2ccc(C)cc2c1=O,18.4%
9,CNC(=O)CC1C(=O)N(c2ccc(F)cc2)C(=S)N1NC(=O)c1ccc(Cl)cc1 (stereo not drawn),6.02%
10,Cc1ccc(C2c3c(oc4ccccc4c3=O)C(=O)N2CCCN2CCOCC2)o1 (stereo not drawn),7.56%
11,CCC(CC)C(=O)N1CCN(c2cccc(C)c2C)CC1,13.3%
12,Cc1cc(=O)[nH]c(SCC(=O)N2CCCC(C)C2)n1 (stereo not drawn),16.8%
13,CNC(=O)c1cc(NC(=O)CCn2nc(-c3ccc(C)cc3)c3ccccc3c2=O)ccc1OC,13.9%
14,Cc1cccc(NC(=O)c2ccc(C(=O)Nc3cccc(C)c3)nc2)c1,23.7%
15,CC1CC(C)CN(CC(C)(C)NS(=O)(=O)c2ccccc2)C1 (stereo not drawn),7.86%
16,CC1(c2ccc(OC(F)F)cc2)NC(=O)N(CC(=O)Nc2ccc3c(c2)OCO3)C1=O (stereo not drawn),5.22%
17,Cc1ccc2[nH]c(O)c(N=NC(=O)C(C)n3cnc4ccccc4c3=O)c2c1 (stereo not drawn),8.8%
18,CCN(CC)S(=O)(=O)c1ccc(NC(=S)Nc2ccc(F)cc2)cc1,17.3%
19,CCN(CC)CCOC(=O)CCc1cccc2ccccc12.O=C(O)C(=O)O,-3.77%
